Test results: the RNAGym collection of RNA variant scans (doi:10.7554/elife.90254)
Read counts are not given, so values of variants with three or more changes are uncertain.

B1: LINE1-full (parent)
chain: UACGUAGGUGGUUUUCCCCUGAUAGUGCUAAGGGGGCCUGGAAGUUUGGACUGGGCAGAGCUCAACACAGCGUGGCAAAGUGGCUGUGGCUAGACUGCCUCUCUGGAUUCCUCGUCACUCAGCAGGGCAUCUCUGAGAGAAAUGCC

Variants of: B1
Experiment: self-cleavage, relative activity (ratio to wild type); higher = more cleavage; in vitro, sequencing; the parent is a self-cleaving ribozyme
UACGUAGGUAGUUUUCCCCAGAUAGUGCUAAGGGGGCCUGGAAGUUUGGACUGGGCAGAGCUCAACACAGCGUGGCAAAGUGGCUGUGGCUAGGCUGCCUCUCUGGAUUCCUCGUCACUCAGCAGGGCAUCUCUGAGAGAGAUGCC [G10A U20A A94G A141G] gave a self-cleavage of 0.84. In the case of UACGUAGGUAGUUUUCCCCUGAUAGUGCUAAGGGGGCCUGGAAGUUUGGACUGGGCAGAGCUCAACACAGCGUGGCAAGGUGGCUGUGGCUAGGCUGCCUCUCUGGAUUCCUCGUCACUCAGCAGGGCAUCUCUGAGAGAAAUGCC [G10A A79G A94G], the self-cleavage is reported as 0.28. For UACGUAGGUUGUUUUCCCCUGGUAGUGCUAAGGGGGCCUGGAAGUUUGGACUGGGCAGAGCUCAACACAGCGUGGCAAAGUGGCUGCGGCUAGACUGCCUCUCUGGAUUCCUCGUCACUCAGCAGGGCAUCUCUGAGAGAAAUGCC [G10U A22G U87C], the self-cleavage was 0.34. In the case of UACGUAGGUAGUUUUCCCCCGAUAGUGCUAAGGGGGCCUGGAAGUCUGGACUGGGCAGAGCUCAACACAGCGUGGCAAAGUGGCUGUGGCUAGACUGCCUCUCUGGACUCCUCGUCACUCAGCAGGGCAUCUCUGAGAGAAAUGCC [G10A U20C U46C U108C], the self-cleavage is reported as 1.04. UACGUAGGUAGUUUUCCCCUGACAGUGCUAAGGGGGCCUGGAAGUUUGGACUGGGCAGAGCUCAAAACAGCGUGGCAAAGUGGCUGUGGCUAGACUGCCUCUCUGGAUUCCUCGUCACUCAGCAGGGCAUCUCUGAGAGAAAUGCC [G10A U23C C66A] gave a self-cleavage of 0.13. In the case of UACGUAGGGGGUUUUCCCCUGAUAGUGCUAAGGGGGCCUGGAAGUUUGGACUGGGCAGAGCUCAACACAGCGAGGCAAAGUGGCUGUGGCUAGACUGCCUCUCUGGAUUCCUCGUCACUCAGCAGGGCAUCCCUGAGAGAAAUGCC [U9G U73A U132C], the self-cleavage is reported as 0.88. UACGUAGGUAGUUUUCCCCUGAUUGUGCUAAGGGGGCCUGGAAGUUUGGACUAGGCAGAGCUCAACACAGCGUGGCAAAGUGGCUGUGGCUAGACUGCCUCUCUGGAUUCCUCGUCACUCAGCAGGGCAUCUCUGAGAGAAAUGCC [G10A A24U G53A] showed a self-cleavage of 1.62. Variant UACGUAGGUAGUUUUCCCCUGAUAGUGCUAAGGGGGCCCGGAAGUUUGGACUGGGCAGAGCUCAACACAGCGUGGCAAAGUGGCCGUGGCUAGACUGCCUCUCUGGAUUCCUCGUCACUCAGCAGGGCAUCUCUGAGAGAAAUGCC [G10A U39C U85C] has a self-cleavage of 0.2. UACGUAGGUAGCUUUCCCCUGAUAGUGCUAAGGGGGCCUGGAAGUUUGGACUGGGCAGAGCUCAACACAGCGUGGCAAAGUGGCUGUGGCUAGACUGCCACUCUGGAUUCCUCGUCACUCAGCAGGGCAUCUCUGAGAGAAAUGCC [G10A U12C U100A] showed a self-cleavage of 1.29. In the case of UACGUAGGUAGUUUUCCCCUGAUAGUGCUAAGGGGGCCUGGAAGUUUGGACUGGGCAGAGCUCAACACAGCGUGGCAAAGUAGCUGUGGCUAGACUGCCUCUCUGGAUUCCUCGUCACUCAGCAGGGCAUCUCUGAGGGAAAUGCC [G10A G82A A138G], the self-cleavage is reported as 1.22. UACGUAGGUAGUUUUCCCCUGAUAGUGCUAAGGGGGCCUGGAAGUUUGGACUGGGCAGAGCACAACACAGCGCGGCAAAGUGGCUGUGGCUAGACUGCCUCUCUGGAUUCCUCGUCACUCAGCAGGGCAUCUCUGAGAGAAAUGCC [G10A U62A U73C] gave a self-cleavage of 0. UACGUAGGUAGUUUUCCCCGGAUAGUGCUAAGGGGGCCUGGAAGUUUGGACUGGGCAGAGCUCAACACAGCGUGGCAAAGUGGCUGUGGCUAGACUGCCUCUCUGGAUUCCUCGUCACUCAGCAGGGCAUCUCAGAGAGAAAUGCC [G10A U20G U134A] showed a self-cleavage of 0.98. Work on UACGUAGGUAGUUUUCCCCUGAUAGUGCUAAGGGGGCCUGGAAGUUUGGACUGGGCAGAGCUCAACGCAGCGUGGCAAAGUGGCUGUGGCUAGACUGCCUCUCUGGAUUCCUCGUCACUCAGCAGGGCAUCUCAGAGAGAAAUGCC [G10A A67G U134A] yielded a self-cleavage of 0.16. UACGUAGGUAGUUUUCCCCUGAUAGUGCUUAGGGGGCCUGGAAGUUUGGACUGGGCAGAGCUCAACACAGCGUGGCAAAGUGGCUGUGGCUAGACUGCCUCUCUGGAUUCCUCGUCACUCAGCAGGGCAUCUCUGAGUGAAAUGCC [G10A A30U A138U] gave a self-cleavage of 1.74. UACGUAGGUAGUUUUCCCCUGAUAGUGCUAAGGGGGCCUGGAGGUUUGGACUGGGCAGAGCUCAACACAGCGCGGCAAAGUGGCUGUGGCUAGACUGCCUCUCUGGAUUCCUCGUCACUCAGCAGGGCAUCUCUGGGAGAAAUGCC [G10A A43G U73C A136G] gave a self-cleavage of 1.45. Variant UACGUAGGGGGUUUACCCCUGAUAGUGCUAAGGGGGCCUGGAAGUUGGGACUGGGCAGAGCUCAACACAGCGUGGCAAAGUGGCUGUGGCUAGACUGCCUCUCUGGAUUCCUCGUCACCCAGCAGGGCAUCUCUGAGAGAAAUGCC [U9G U15A U47G U119C] has a self-cleavage of 0.72. UACGUAGGUAGUUUUCCCCUGAUAGUGCUAAGGGGGCCCGGAAGUUUGGACUGGGCAGAGCUCAACACAGCGUGGCAAAGAGGCUGUGGCUAGACUGCCUCUCUGGAUUCCUCGUCACUCAGCAGGGCAUCUCUGAGAGAAAUGCC [G10A U39C U81A] gave a self-cleavage of 1.52. With UACGUAGGGGGUUUUCCCCUGAUAGUGCUAAGGGGGCCCGGAAGUUUGGACUGGGCAGAGCUCAACACAUCGUGGCGAAGUGGCUGUGGCUAGACUGCCUCUCUGGACUCCUCGCCACUCAGCAGGGCAUCUCUGAGAGAAAUGCC [U9G U39C G70U A77G U108C U115C] the self-cleavage was 0. UACGUAGGUAGUUUUCCCCUGAUAGUGCUAAGGGGGCCUGGAAGUUUGGACUGGGCAGAGCUCAACACAGCGUGGCAAAGUGGCCGUGGCUAGACAGCCUCUCUGGAUUCCUCGUCACUCAGCAGGGCAUCUCUGAGAGAAAUGCC [G10A U85C U96A] showed a self-cleavage of 0.06.
